# PubChem BioAssay AID1745853 (National Center for Advancing Translational Sciences (NCATS), 2022)
# Several values for one entry are separate records, joined by “and”; a condition that tells them apart may be missing. Equal entries are not always repeated. This is one part of the list. These are further read-outs of the screen, such as a control signal, another cell line or another target. No call is given for them.
# Legend:
# Assay in all cases: Primary Screen for Target Class Profiling of Small Molecule Inhibitors of Methyltransferases
# [1] = target: Glycine N-methyltransferase (Homo sapiens) (UniProt Q14749); conditions: purified enzyme, MTase-Glo SAH luminescence; measured here: GNMT inhibition; at 40 µM; stronger effect = lower value
# Outline: (§1)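 Each enzyme was assayed with SAM and its substrate. SAH formation detected by MTase-Glo luminescence; single-point 40 uM screen[…].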
# [2] = target: Guanidinoacetate N-methyltransferase (Homo sapiens) (UniProt Q14353); conditions: purified enzyme, MTase-Glo SAH luminescence; measured here: GAMT inhibition; at 40 µM; stronger effect = lower value
# Outline: as §1
# [3] = target: Histamine N-methyltransferase (Homo sapiens) (UniProt P50135); conditions: purified enzyme, MTase-Glo SAH luminescence; measured here: HNMT inhibition; at 40 µM; stronger effect = lower value
# Outline: as §1
# [4] = target: Nicotinamide N-methyltransferase (Homo sapiens) (UniProt P40261); conditions: purified enzyme, MTase-Glo SAH luminescence; measured here: NNMT inhibition; at 40 µM; stronger effect = lower value
# Outline: as §1
# [5] = target: Phenylethanolamine N-methyltransferase (Homo sapiens) (UniProt P11086); conditions: purified enzyme, MTase-Glo SAH luminescence; measured here: PNMT inhibition; at 40 µM; stronger effect = lower value
# Outline: as §1
# % is scaled to controls: 0 for no effect and ±100 for the full control effect.
compound,measurement,setting,value
CCOc1cccc(C2c3cccn3-c3sc4c(c3CN2C(=O)Nc2ccccc2OC)CCCC4)c1 (stereo not given),"activity change, negative = inhibition",[1],2.73%
same,"activity change, negative = inhibition",[2],1.51%
same,"activity change, negative = inhibition",[3],6.59%
same,"activity change, negative = inhibition",[4],-2.07%
same,"activity change, negative = inhibition",[5],7.66%
NC(N)=N/N=C/c1ccccc1Cl,"activity change, negative = inhibition",[1],-0.236%
same,"activity change, negative = inhibition",[2],-2%
same,"activity change, negative = inhibition",[3],-23.7%
same,"activity change, negative = inhibition",[4],-14.4%
same,"activity change, negative = inhibition",[5],-3.41%
O=[N+]([O-])c1ccc(CNc2nc(NCc3cccc(C(F)(F)F)c3)nc3nc[nH]c23)cc1,"activity change, negative = inhibition",[1],-15.3% and 0.107%
same,"activity change, negative = inhibition",[2],5.29% and 5.59%
same,"activity change, negative = inhibition",[3],-5.64% and -2.9%
same,"activity change, negative = inhibition",[4],-41.6% and -56.6%
same,"activity change, negative = inhibition",[5],-1.21% and -5.37%
COc1cc(C)c(Sc2cnc(NC(=O)c3ccc(CNC(C)C(C)C)cc3)s2)cc1C(=O)N1CCN(C(C)=O)CC1 (stereo not given),"activity change, negative = inhibition",[1],-13.4%
same,"activity change, negative = inhibition",[2],8.36%
same,"activity change, negative = inhibition",[3],-33%
same,"activity change, negative = inhibition",[4],-13.9%
same,"activity change, negative = inhibition",[5],-5.62%
Cc1ccc(Cn2c(=O)c3ccc(C(=O)NC(C)C)cc3n3c(=O)n(CC(=O)NC4CCCC4)nc23)cc1,"activity change, negative = inhibition",[1],1.92%
same,"activity change, negative = inhibition",[2],0.284%
same,"activity change, negative = inhibition",[3],2.88%
same,"activity change, negative = inhibition",[4],-2.11%
same,"activity change, negative = inhibition",[5],-1.3%
CCCn1c(=O)c2ccc(C(=O)NC(C)CC)cc2n2c(=O)n(CC(=O)NC3CCCC3)nc12 (stereo not given),"activity change, negative = inhibition",[1],-3.43%
same,"activity change, negative = inhibition",[2],0.911%
same,"activity change, negative = inhibition",[3],-3.11%
same,"activity change, negative = inhibition",[4],-12%
same,"activity change, negative = inhibition",[5],-12.8%
Cc1ccc(CN2C(=O)c3cc4oc(C)cc4n3CC2(C)C(=O)NC2CCCCCC2)cc1 (stereo not given),"activity change, negative = inhibition",[1],-9.52%
same,"activity change, negative = inhibition",[2],3.86%
same,"activity change, negative = inhibition",[3],-6.84%
same,"activity change, negative = inhibition",[4],-7.63%
same,"activity change, negative = inhibition",[5],-16.2%
Cc1cccc(-c2ncc(CN(CCC(N)=O)Cc3ccccc3)cn2)c1,"activity change, negative = inhibition",[1],-5.05%
same,"activity change, negative = inhibition",[2],-4.84%
same,"activity change, negative = inhibition",[3],-3.13%
same,"activity change, negative = inhibition",[4],-4.93%
same,"activity change, negative = inhibition",[5],-12.4%
COc1cc(CN(CCN)C(=O)c2cccs2)ccc1OCc1ccccc1,"activity change, negative = inhibition",[1],-10.4%
same,"activity change, negative = inhibition",[2],-4.4%
same,"activity change, negative = inhibition",[3],-19.3%
same,"activity change, negative = inhibition",[4],-15%
same,"activity change, negative = inhibition",[5],-1.14%
CC(C)Cn1c(=O)c2ccc(C(=O)NC(C)C)cc2n2c(SCC(=O)NC(C)C)nnc12,"activity change, negative = inhibition",[1],9.11%
same,"activity change, negative = inhibition",[2],0.676%
same,"activity change, negative = inhibition",[3],8.56%
same,"activity change, negative = inhibition",[4],10.7%
same,"activity change, negative = inhibition",[5],10.3%
C[C@@H]1O[C@@H](O[C@H]2[C@H](OC(=O)[C@]34CCC(C)(C)C[C@H]3C3=CCC5[C@@]6(C)C[C@H](O)[C@H](O[C@@H]7O[C@H](CO[C@@H]8OC[C@H](O)[C@H](O)[C@H]8O)[C@@H](O)[C@H](O)[C@H]7O)C(C)(C)C6CC[C@@]5(C)[C@]3(C)C[C@H]4O)OC[C@@H](O)[C@@H]2O)[C@H](O)[C@H](O[C@@H]2OC[C@](O)(CO)[C@H]2O)[C@H]1O[C@@H]1OC[C@H](O)[C@H](O[C@@H]2OC[C@@H](O)[C@H](O)[C@H]2O)[C@H]1O (stereo not given in full),"activity change, negative = inhibition",[1],4.2%
same,"activity change, negative = inhibition",[2],13.1%
same,"activity change, negative = inhibition",[3],11.8%
same,"activity change, negative = inhibition",[4],2.8%
same,"activity change, negative = inhibition",[5],11.1%
CCN(CC)CCN1C(=O)c2ccc(-c3ccco3)n2CC1(C)C(=O)NC1CCCCCC1 (stereo not given),"activity change, negative = inhibition",[1],2.19%
same,"activity change, negative = inhibition",[2],6.76%
same,"activity change, negative = inhibition",[3],7.37%
same,"activity change, negative = inhibition",[4],7.11%
same,"activity change, negative = inhibition",[5],1.34%
COc1ccc(OCC2CN(CC3CC3)[S+](=O)([O-])c3cnccc3O2)cc1 (stereo not given),"activity change, negative = inhibition",[1],-6.25%
same,"activity change, negative = inhibition",[2],-4.44%
same,"activity change, negative = inhibition",[3],-2.04%
same,"activity change, negative = inhibition",[4],-7.95%
same,"activity change, negative = inhibition",[5],-3.19%
